{"source": "PubChem BioAssay AID1468", "about": "(National Center for Advancing Translational Sciences (NCATS), 2008)", "note": "Screen size: about 280,000 compounds; about 1,100 (0.39%) were called active. The shares of active, inactive and inconclusive entries below differ from those in the screen. The call rests on the fitted dose curve; in most records, active means well fitted inhibition curve with a large enough effect; inconclusive means small, poorly fitted or top-dose-only effect, or effect the other way; inactive means flat fitted curve, though single readings scatter. No potency is given beside an inconclusive call; the fits are too rough. Potency means the concentration at half of the fitted maximal effect; tags describe the fitted curve by direction and shape."}
{"biological_target": "Microtubule-associated protein tau (Homo sapiens) (UniProt P10636)", "sequence (P10636 whole entry, looked up)": "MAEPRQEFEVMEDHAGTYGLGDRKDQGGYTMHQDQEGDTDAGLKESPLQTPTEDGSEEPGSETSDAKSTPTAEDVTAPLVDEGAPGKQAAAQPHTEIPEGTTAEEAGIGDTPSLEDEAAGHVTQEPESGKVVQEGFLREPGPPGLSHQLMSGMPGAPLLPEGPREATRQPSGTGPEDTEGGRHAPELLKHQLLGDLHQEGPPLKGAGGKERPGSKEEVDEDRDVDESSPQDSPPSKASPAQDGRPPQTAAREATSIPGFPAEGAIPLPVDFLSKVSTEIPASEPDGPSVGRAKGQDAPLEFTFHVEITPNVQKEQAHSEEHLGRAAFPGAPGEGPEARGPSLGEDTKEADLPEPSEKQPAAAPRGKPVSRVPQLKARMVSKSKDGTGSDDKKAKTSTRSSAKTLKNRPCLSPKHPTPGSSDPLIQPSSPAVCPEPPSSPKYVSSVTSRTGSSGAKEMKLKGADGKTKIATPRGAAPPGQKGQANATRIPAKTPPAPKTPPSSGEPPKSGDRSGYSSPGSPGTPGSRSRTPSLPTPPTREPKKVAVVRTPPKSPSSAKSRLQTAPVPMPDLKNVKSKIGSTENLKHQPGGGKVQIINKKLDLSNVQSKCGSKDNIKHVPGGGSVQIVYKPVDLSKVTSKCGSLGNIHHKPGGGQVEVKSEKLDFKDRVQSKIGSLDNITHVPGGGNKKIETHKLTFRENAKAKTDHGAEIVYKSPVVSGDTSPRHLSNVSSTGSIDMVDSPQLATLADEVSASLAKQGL", "assay": "qHTS for Inhibitors of Tau Fibril Formation, Fluorescence Polarization; further: nearly all actives have a fitted effect of over 55% in size", "settings": "K18 P301L tau heparin fibrillization, Alexa594 FP, 6 h; series mostly up to 57.7 µM", "outline": "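K18 P301L tau (15 uM unlabeled/0.24 uM Alexa 594-labeled, final) + compound + heparin 20 uM final; 100 mM NaOAc pH 7; 6 hr 37 C; ThT 30 uM final added, 1 hr RT; FP ex 555/em 632 nm.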"}
{"smiles": "CC(C)c1nc(N2CCN(C(=O)c3ccco3)CC2)c2c3c(sc2n1)CCCC3", "Potency": "inconclusive [inhibitor, partial curve, poor fit]"}
{"smiles": "O=C1CN(C(=O)c2cc([N+](=O)[O-])ccc2Cl)C(c2ccc(F)cc2)c2cc(F)ccc2N1", "note": "(stereo not drawn)", "Potency": "inconclusive [activator, single point]"}
{"smiles": "COc1ccc(N2CCN(Cc3nc(N)nc(Nc4ccc(C)c(Cl)c4)n3)CC2)cc1", "Potency": "inconclusive [activator, full curve]"}
{"smiles": "O=C(Nc1ccc2c(c1)OCO2)c1cccs1", "Potency": "inactive"}
{"smiles": "COc1cc(C2C(C#N)=C(N)Oc3c2ccc2ccccc32)ccc1OCC(=O)Nc1ccccc1C", "note": "(stereo not drawn)", "Potency": "inconclusive [inhibitor, single point]"}
{"smiles": "CCC(=O)N1CCc2cc(Br)cc(S(=O)(=O)CCC(=O)NCc3ccccc3OC)c21", "Potency": "inconclusive [inhibitor, single point]"}
{"smiles": "CCOc1ccc(N)cc1OC", "Potency": "inactive"}
{"smiles": "CN(C(=O)c1coc(=O)c2ccccc12)c1ccccc1Cl", "Potency": "inactive"}
{"smiles": "COc1cc(/C=N/NC(=O)CN(CCc2ccccc2)S(=O)(=O)c2ccc(NC(C)=O)cc2)cc(OC)c1OC", "Potency": "inconclusive [inhibitor, partial curve, poor fit]"}
{"smiles": "Cc1ccc(-c2nnc(Nc3cccc(Cl)c3)c3ccccc23)cc1S(=O)(=O)N1CCCCC1", "Potency": "inconclusive [inhibitor, partial curve]"}
{"smiles": "N#Cc1nc(-c2ccc(OCc3ccccc3)cc2)oc1NCCCN1CCOCC1", "Potency": "inconclusive [activator, single point]"}
{"smiles": "COc1cc(/C=N/NC(=O)CC#N)cc(Br)c1O", "Potency": "inconclusive [inhibitor, partial curve, poor fit]"}
{"smiles": "CC1=Nc2cc(C(=O)NCc3ccccc3Cl)ccc2Sc2c(C)ccc(C)c21", "Potency": "inconclusive [inhibitor, single point]"}
{"smiles": "COc1ccc(C2C(C(C)=O)=C(O)C(=O)N2c2cccnc2)c(OC)c1", "note": "(stereo not drawn)", "Potency": "inconclusive [inhibitor, single point]"}
{"smiles": "Cc1cc(C)c(NC(=O)Cn2nc(-c3ccncc3)ccc2=O)c(C)c1", "Potency": "inconclusive [inhibitor, single point]"}
{"smiles": "S=C(Sc1ccc(Cl)cc1)Sc1ccc(Cl)cc1", "Potency": "inconclusive [inhibitor, partial curve]"}
{"smiles": "CCC1CN(S(=O)(=O)c2cc(-c3cc(C)no3)ccc2C)c2cc(C)ccc2O1", "note": "(stereo not drawn)", "Potency": "inconclusive [inhibitor, partial curve, poor fit]"}
{"smiles": "CCCCCCCCCCCCC/C=C/[C@@H](O)[C@H](CO)NC(C)=O", "Potency": "inactive"}
{"smiles": "COc1ccc(Oc2cc(C)nc(Cl)n2)nn1", "Potency": "inactive"}
{"smiles": "CC(=O)c1c(C)[nH]c(C(=O)Nc2ccc(C)c(S(=O)(=O)Nc3ccc(C)cc3C)c2)c1C", "Potency": "inconclusive [inhibitor, single point]"}
{"smiles": "O=C(NCCC1=CCCCC1)c1ccc2c(c1)N(Cc1cccc(Cl)c1)C(=O)c1ccccc1S2=O", "note": "(stereo not drawn)", "Potency": "inactive"}
{"smiles": "CC(=O)Nc1ccc(S(=O)(=O)Oc2cccc(/C=N/N=C3/NC(=O)C(CC(=O)O)S3)c2)cc1", "note": "(stereo not drawn)", "Potency": "inconclusive [inhibitor, single point]"}
{"smiles": "Cc1ccc(S(=O)(=O)N(CC(=O)Nc2ccc3c(c2)OCO3)c2cc(Cl)cc(Cl)c2)cc1", "Potency": "inconclusive [inhibitor, partial curve]"}
{"smiles": "Cc1cc(N)n(-c2ccc(S(=O)(=O)c3ccc(C(C)C)cc3)cc2)n1", "Potency": "inactive"}
{"smiles": "CCCc1cc(-c2[nH]ncc2-c2ccc(C(=O)OCC)o2)c(O)cc1O", "Potency": "inconclusive [activator, full curve, poor fit]"}
{"smiles": "COc1ccccc1C(=O)Nc1cccc(C(=O)OCc2cc(=O)n3cc(C)sc3n2)c1", "Potency": "inconclusive [inhibitor, single point]"}
{"smiles": "CC1=C(c2ccc(C)c(C)c2)S(=O)(=O)NC1=NCc1ccccc1Cl", "Potency": "inconclusive [activator, single point]"}
{"smiles": "C#CC[N+](C)(C)CCCCCCCCCCCC", "Potency": "inconclusive [activator, single point]"}
{"smiles": "Cc1cccn2c(CN(C)CCC3CCCCO3)c(C(=O)N3CCCCC3)nc12", "note": "(stereo not drawn)", "Potency": "inactive"}
{"smiles": "O=C(N[C@@H](Cc1ccccc1)C(=O)OCc1ccccc1)c1nc[nH]c1C(=O)N1CCc2ccccc2C1", "Potency": "inconclusive [inhibitor, full curve, poor fit]"}
{"smiles": "CCOc1ccccc1-c1cc(C(=O)N/N=C/c2ccc(O)c(OC)c2)c2ccccc2n1", "Potency": "inconclusive [activator, full curve, poor fit]"}
{"smiles": "Cc1ccc(NC(=O)C2CCCN2S(=O)(=O)c2cccc3nsnc23)c(Br)c1", "note": "(stereo not drawn)", "Potency": "inactive"}
{"smiles": "O=C(COC(=O)c1ccc2c(c1)OCCO2)Nc1cccc(S(=O)(=O)N2CCOCC2)c1", "Potency": "inactive"}
{"smiles": "COC(C(=O)Nc1cccc([N+](=O)[O-])c1)c1ccccc1", "note": "(stereo not drawn)", "Potency": "inactive"}
{"smiles": "CCOc1cccc(NC(=O)C2CC(=O)N(C)C(=Nc3cccc(F)c3)S2)c1", "note": "(stereo not drawn)", "Potency": "inconclusive [inhibitor, single point]"}
{"smiles": "CCOc1ccc(NC(=S)NCCCc2ccccc2)cc1", "Potency": "inconclusive [activator, single point]"}
{"smiles": "CC(NC(=O)Cc1ccc(F)cc1)c1ccc(F)cc1", "note": "(stereo not drawn)", "Potency": "inactive"}
{"smiles": "C=C(C)c1cccc(C(C)(C)NC(=O)Nc2ccc(C(C)=O)cc2)c1", "Potency": "inconclusive [inhibitor, single point]"}
{"smiles": "CCOC(=O)c1sc2ncn(CC(=O)Nc3cc(C)cc(C)c3)c(=O)c2c1C", "Potency": "inconclusive [inhibitor, partial curve]"}
{"smiles": "COC(=O)c1ccccc1NC(=O)Cn1c(=O)cc(-c2ccccc2)c2c(C)nn(C)c21", "Potency": "inactive"}
{"smiles": "FC(F)(F)c1cnc(N2CCN(C(=S)NCc3ccccc3)CC2)c(Cl)c1", "Potency": "inconclusive [inhibitor, partial curve]"}
{"smiles": "Cc1ccc(C(=O)Nc2ccc(Br)c(C(F)(F)F)c2)cc1", "Potency": "inconclusive [inhibitor, partial curve]"}
{"smiles": "Brc1ccccc1-c1nnc(-c2cccnc2)o1", "Potency": "inactive"}
{"smiles": "Cc1nn(Cc2ccccc2Cl)c2sc(C(=O)Nc3nccs3)cc12", "Potency": "inconclusive [inhibitor, full curve]"}
{"smiles": "O=[N+]([O-])c1cccnc1Oc1ccc(C2SCCS2)cc1", "Potency": "inactive"}
{"smiles": "CN(C)/C=C/C(=O)c1ccc(S(=O)c2ccccc2)cc1", "note": "(stereo not drawn)", "Potency": "inconclusive [inhibitor, single point]"}
{"smiles": "COc1ccc(NC(=S)N2CCCN(Cc3cccc(Cl)c3)C2)cc1", "Potency": "inactive"}
{"smiles": "COc1ccc(NC(=O)c2cc(C(C)=O)n3ccccc23)cc1Cl", "Potency": "inconclusive [inhibitor, single point]"}
{"smiles": "Cc1cc(/C=C(\\C#N)C(=O)Nc2ccccc2)c(C)n1-c1ccc(F)cc1", "Potency": "inconclusive [inhibitor, single point]"}
{"smiles": "COc1ccc(N2CCN(C(=O)CCc3ccc(S(=O)(=O)NCC(C)C)cc3)CC2)cc1", "Potency": "inactive"}
{"smiles": "COc1ccc(NC(=O)CSC2=NCCN2)cc1", "Potency": "inactive"}
{"smiles": "Cc1cccc(C(=O)Nc2ccc3nc(SCC(=O)N4CCc5ccccc54)sc3c2)c1", "Potency": "inconclusive [inhibitor, partial curve]"}
{"smiles": "COc1ccc(OC)c(-c2nnc3n(CCc4ccccc4)c(=O)c4ccccc4n23)c1", "Potency": "inactive"}
{"smiles": "COc1ccc(CNC(=O)c2cc(C3CC3)nc3c2c(C)nn3-c2cccc(Cl)c2C)cc1", "Potency": "inconclusive [inhibitor, partial curve, poor fit]"}
{"smiles": "CC1CCc2c(sc(N)c2C(=O)OC(C)C)C1", "note": "(stereo not drawn)", "Potency": "inactive"}
{"smiles": "CN1C(=S)N(c2cccnc2)C(=O)/C1=C\\c1ccc(C(C)(C)C)cc1", "Potency": "inactive"}
{"smiles": "CCOC(=O)c1cccc(NC(=O)C2CCN(S(=O)(=O)c3c(C)noc3/C=C/c3ccc(C)cc3)CC2)c1", "Potency": "inconclusive [inhibitor, partial curve]"}
{"smiles": "CC(C)S(=O)(=O)c1csc(NC(=O)Nc2ccc(Cl)cc2)c1", "Potency": "inconclusive [inhibitor, single point]"}
{"smiles": "Cc1ccccc1OCC(=O)Nc1ccc2c(c1)C(=O)c1ccccc1C2=O", "Potency": "inconclusive [activator, single point]"}
{"smiles": "COc1ccc(O)c(C2(O)C(=O)c3ccccc3C2=O)c1", "Potency": "inactive"}
{"smiles": "COc1ccc(Br)cc1/C=c1\\sc2nc(-c3ccco3)nn2c1=O", "Potency": "inconclusive [inhibitor, single point]"}
{"smiles": "CCN(CC)CCCC(C)Nc1nc(C)cc(Nc2ccc3nc(C)cc(N)c3c2)n1", "note": "(stereo not drawn)", "Potency": "inconclusive [inhibitor, single point]"}
{"smiles": "Cc1cc(C)cc(NC(=O)Cn2c(=O)n(CCC(C)C)c(=O)c3cccnc32)c1", "Potency": "inconclusive [inhibitor, partial curve, poor fit]"}
{"smiles": "Cc1ccc2cc(C(c3nnnn3C3CCCC3)N(Cc3ccccc3)Cc3ccco3)c(=O)[nH]c2c1", "note": "(stereo not drawn)", "Potency": "inactive"}
{"smiles": "C/C(=N\\NC(=S)NC1CCCCC1)c1cccs1", "Potency": "inactive"}
{"smiles": "COc1ccc(NC(NC(=O)c2ccc(OC)cc2)C(Cl)(Cl)Cl)cc1", "note": "(stereo not drawn)", "Potency": "inconclusive [activator, partial curve, poor fit]"}
{"smiles": "Cn1c(=O)oc2cc(NC(=O)CCl)ccc21", "Potency": "inactive"}
{"smiles": "CC1(C)CC(=O)c2c(oc3ccc(NS(=O)(=O)c4cccc5cccnc45)cc23)C1", "Potency": "inconclusive [inhibitor, single point]"}
